The supplement of paper PMC11166567
The other results are listed elsewhere or left out.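 How the source made its calls: active = permutation test q below 0.05 after Benjamini-Hochberg correction; inactive = q of 0.05 or more.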

Assays:
A549 = assay: mean average precision of replicate retrieval against DMSO controls (Cell Painting phenotypic activity) (fraction (0-1)); higher = stronger, more reproducible morphological phenotype distinct from DMSO; extreme values may be limits of the assay; details: 5 µM
U2OS = assay: as above; details: 5 µM

Measured: mean average precision
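Further: cosine similarity of well-level aggregated Cell Painting profiles ranks each compound's replicate wells against DMSO wells, four replicate plates, significance from 100,000 rank shuffles.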

CN1C/C=C/CCOc2cccc(c2)-c2ccnc(n2)Nc2cccc(c2)C1
active: A549; 24 h 1 | A549; 48 h 1 | U2OS; 24 h 1 | U2OS; 48 h 1

O=C(O)c1ccc(-n2nc(-c3ccccc3O)nc2-c2ccccc2O)cc1
active: A549; 24 h 1 | A549; 48 h 1 | U2OS; 24 h 1 | U2OS; 48 h 1

CCOc1ccc2nc(S(N)(=O)=O)sc2c1
active: A549; 24 h 0.889 | A549; 48 h 0.666 | U2OS; 24 h 0.622 | U2OS; 48 h 0.326

COc1ccc(OC)c2c(=S)c3ccccc3[nH]c12
active: A549; 24 h 0.691 | A549; 48 h 0.656 | U2OS; 24 h 0.626 | U2OS; 48 h 0.495

Cc1cc(-c2ccc3c(c2)CC[C@H]3N2CC3(CCN(C(=O)Cc4cn5cc(C)sc5n4)CC3)C2)ncn1
active: A549; 48 h 0.979 | U2OS; 24 h 0.89 | U2OS; 48 h 0.524
inactive: A549; 24 h 0.202

COc1cc(OC)c(/C=C/S(=O)(=O)Cc2ccc(OC)c(OP(=O)(O)O)c2)c(OC)c1
active: A549; 24 h 1 | A549; 48 h 1 | U2OS; 24 h 1 | U2OS; 48 h 1

CCn1cc(-c2ccnc3[nH]c(-c4cccc(CN(C)C)c4)cc23)c(-c2ccc(NC(=O)N(C)C)cc2)n1
active: A549; 24 h 1 | A549; 48 h 1 | U2OS; 24 h 1 | U2OS; 48 h 0.791

O=C(Nc1cnn2ccc(N3CCC[C@@H]3c3cc(F)ccc3F)nc12)N1CC[C@H](O)C1
active: A549; 48 h 0.809 | U2OS; 24 h 0.65 | U2OS; 48 h 0.334
inactive: A549; 24 h 0.288

O=C1CCc2cc(OCCCCc3nnnn3C3CCCCC3)ccc2N1
active: A549; 24 h 0.728 | A549; 48 h 0.594 | U2OS; 24 h 0.808 | U2OS; 48 h 0.889

Nc1cc(C(F)(F)F)c(-c2cc(N3CCOCC3)nc(N3CCOCC3)n2)cn1
active: A549; 24 h 1 | A549; 48 h 1 | U2OS; 24 h 1 | U2OS; 48 h 1
